Experimental data from PubChem BioAssay AID485364 (National Center for Advancing Translational Sciences (NCATS), 2010).
Among all 360,000 compounds or so, about 11,000 (3.1%) were called active. This list was built around the results that the source calls inconclusive (neither active nor inactive); the mix of calls is not that of the screen. Calls follow the shape of the dose curve; as a rule, active = well fitted inhibition curve with a large enough effect; inconclusive = small, poorly fitted or top-dose-only effect; inactive = no such curve, though single readings can be large or run the other way. No potency is given beside an inconclusive call; the fits are too rough.

Biological target: Schistosoma mansoni thioredoxin glutathione reductase (TGR) (UniProt Q962Y6)
Assay: qHTS Assay for the Inhibitors of Schistosoma Mansoni Peroxiredoxins; also: nearly all actives have a fitted effect of over 60% in size
Details: purified TGR, DTNB reduction, TNB absorbance 405 nm; series mostly up to 114 µM
Outline: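 Kinetic colorimetric format: TGR-catalysed, NADPH-driven DTNB reduction monitored via TNB absorbance. Enzyme dispensed at 20 nM; compound exposure 15 min at room temperature before reaction start.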
Potency is read from the fitted curve at half-maximal effect; tags tell the direction and shape of the fitted curve.

SMILES | Potency
O=C(CNC(=O)c1ccc(Cl)c([N+](=O)[O-])c1)OCN1C(=O)c2ccccc2C1=O | inconclusive [inhibitor, partial curve]
COc1ccc(NC(=O)CSc2nccn2Cc2ccccc2)cc1 | inactive
COCCn1c(C)cc(O)c(C(c2ccc(Cl)cc2)N2CCCCC2)c1=O (configuration not stated) | active: 10 µM
O=C(CSc1nc2ccccc2s1)N1c2ccccc2Sc2ccccc21 | inactive
Cc1ccc(-c2cc(C(F)(F)F)c(C#N)c(SCC(=O)Nc3ccccc3F)n2)cc1 | inconclusive [inhibitor, single point]
Cc1ccc2cc(C(c3nnnn3C3CCCC3)N(Cc3ccco3)Cc3cccs3)c(=O)[nH]c2c1 (configuration not stated) | inactive
O=C(CC1C(=O)N(c2ccccc2)C(=O)N1Cc1ccco1)Nc1ccccc1 (configuration not stated) | inconclusive [inhibitor, partial curve]
Cc1cc(C)cc(NC(=O)CCN2C(=O)c3ccccc3Sc3ncccc32)c1 | active: 39.8 µM
CCN1CC(CN(C)Cc2nc(-c3ccco3)oc2C)CC1=O (configuration not stated) | inconclusive [inhibitor, full curve]
Cc1nc(-c2ccccc2)cn(O)c1=O | inconclusive [inhibitor, full curve, poor fit]
Cc1onc(-c2ccccc2)c1NC(=O)N(Cc1ccccc1)C(C)C | inconclusive [inhibitor, full curve]
NN/C(=C\[N+](=O)[O-])Nc1ccccc1 | active: 22.4 µM
C[C@@H]([C@H](O)c1ccccc1)N(C)C(=S)Nc1ccccc1 | inactive
CCOC(=O)NC(NC(=S)Nc1ccccc1OC)C(Cl)(Cl)Cl (configuration not stated) | inconclusive [inhibitor, single point]
Brc1ccc2nc(SCCOc3ccccc3)[nH]c2c1 | inactive
Cc1ccc2oc(-c3cc(NC(=O)/C=C/c4ccco4)ccc3Cl)nc2c1 | inconclusive [inhibitor, partial curve]
O=C1/C(=C/c2ccco2)SC(=S)N1C1CCS(=O)(=O)C1 (configuration not stated) | inconclusive [inhibitor, partial curve]
COc1ccc(/C=N\NC(=O)c2ccc(F)cc2)cc1COc1ccccc1C(N)=O | active: 28.2 µM
COc1ccc(NC(=O)NC(C)c2c(-n3cccc3)sc3c2CCN(C)C3)c(OC)c1 (configuration not stated) | inactive
CN(C(=O)c1cc2nc(-c3ccco3)cc(C(F)(F)F)n2n1)C1CCCCC1 | inconclusive [inhibitor, partial curve]
O=C(CSc1nnc2[nH]c(=O)cc(-c3ccccc3)n12)Nc1cc(C(F)(F)F)ccc1Cl | inactive
Cc1cc(/C=C2\SC(=O)N(CC(=O)Nc3ccccc3F)C2=O)c(C)n1C | active: 25.1 µM
CCOC(=O)C1=C(N)n2c(s/c(=C/c3ccco3)c2=O)=C(C(=O)OC)C1c1ccco1 (configuration not stated) | inconclusive [inhibitor, partial curve]
CCCCN1C(=O)/C(=C/c2ccc(N(C)C)cc2)C(=O)N(Cc2ccco2)C1=O | inconclusive [inhibitor, full curve]

SMILES | Potency
O=C(Nn1cnc2ccccc2c1=O)c1c(F)cccc1F | inactive
CCCN(C(=O)Cn1cc(S(=O)(=O)N2CCN(c3ccccc3F)CC2)c2ccccc2c1=O)c1cccc(C)c1 | inactive
COc1ccccc1NC(=O)COC(=O)c1ccc(S(=O)(=O)NCc2ccco2)cc1 | inconclusive [inhibitor, single point]
Clc1ccc(C2[C@H]3CN(CC4CCCCC4)[C@H](c4ccccc4)C34CC2(c2cccnc2)C4)cn1 (some centres not stated) | inconclusive [inhibitor, partial curve]
Cc1cc(/C=C2/C(=O)NC(=O)N(Cc3ccco3)C2=O)c(C)n1-c1ccccc1 | inconclusive [inhibitor, partial curve]
CCc1ccc(NC(=O)N2CCN(C(=O)c3nsc4ccccc34)CC2)cc1 | inactive
CCOc1ccc(NC(=O)CN2CCN(CC(=O)Nc3ccc(C(N)=O)cc3)CC2)cc1 | inconclusive [inhibitor, partial curve]
CCN(CC)C(=O)OCc1c(-c2ccccc2)ncc2ccccc12 | inconclusive [inhibitor, single point]
O=[N+]([O-])c1cccc(S(=O)(=O)N2CCCCC2c2cccnc2)c1 (configuration not stated) | inactive
O=C(Nc1cccc2ncccc12)c1ccc([N+](=O)[O-])o1 | inconclusive [inhibitor, full curve, poor fit]
O=C(Oc1ccc(=O)n(-c2ccccc2)n1)c1ccc(Cl)cc1 | inconclusive [inhibitor, full curve]
CN(CCc1ccccn1)C(=O)CC1C(=O)NCCN1Cc1ccccc1C(F)(F)F (configuration not stated) | inconclusive [inhibitor, partial curve]
Oc1c(C(c2ccco2)N2CCOCC2)sc2ncnn12 (configuration not stated) | inconclusive [inhibitor, partial curve]
CC(=O)Nc1ccc(NS(=O)(=O)C(F)(F)F)cc1 | inconclusive [inhibitor, single point]
O=C(Nc1ccccc1)N1CCC(O)(c2cccc(C(F)(F)F)c2)CC1 | inconclusive [inhibitor, single point]
Cc1ccc(NC(=O)CSc2nc(C)c(C)c(C)n2)c([N+](=O)[O-])c1 | inactive
Nc1ncc2c(n1)CC(c1ccco1)CC2=O (configuration not stated) | active: 50.1 µM
O=C(CC(c1ccc(F)cc1)c1ccco1)Nc1nccs1 (configuration not stated) | active: 39.8 µM
Cc1ccc(C)c(-c2csc(N/N=C/c3ccco3)n2)c1 | inactive
CC(=O)N(CCC(c1ccccc1)c1ccco1)Cc1cccs1 (configuration not stated) | active: 11.2 µM
COc1ccc(C(=O)NCC(c2ccco2)S(=O)(=O)c2cccs2)cc1OC (configuration not stated) | active: 1.26 µM
CC(C)(C)C1=C(C#N)C(c2cccnc2)C(C#N)=C(N)O1 (configuration not stated) | inconclusive [inhibitor, full curve]
COc1ccccc1N1CCN(C2CCCN(C(=O)CCc3cnn(C)c3)C2)CC1 (configuration not stated) | inactive
